# From the supplement of paper PMC8728848
# The other results are listed elsewhere or left out.
# B1: Neuropilin-2 (Homo sapiens), O60462 (protein)
# chain: MDMFPLTWVFLALYFSRHQVRGQPDPPCGGRLNSKDAGYITSPGYPQDYPSHQNCEWIVYAPEPNQKIVLNFNPHFEIEKHDCKYDFIEIRDGDSESADLLGKHCGNIAPPTIISSGSMLYIKFTSDYARQGAGFSLRYEIFKTGSEDCSKNFTSPNGTIESPGFPEKYPHNLDCTFTILAKPKMEIILQFLIFDLEHDPLQVGEGDCKYDWLDIWDGIPHVGPLIGKYCGTKTPSELRSSTGILSLTFHTDMAVAKDGFSARYYLVHQEPLENFQCNVPLGMESGRIANEQISASSTYSDGRWTPQQSRLHGDDNGWTPNLDSNKEYLQVDLRFLTMLTAIATQGAISRETQNGYYVKSYKLEVSTNGEDWMVYRHGKNHKVFQANNDATEVVLNKLHAPLLTRFVRIRPQTWHSGIALRLELFGCRVTDAPCSNMLGMLSGLIADSQISASSTQEYLWSPSAARLVSSRSGWFPRIPQAQPGEEWLQVDLGTPKTVKGVIIQGARGGDSITAVEARAFVRKFKVSYSLNGKDWEYIQDPRTQQPKLFEGNMHYDTPDIRRFDPIPAQYVRVYPERWSPAGIGMRLEVLGCDWTDSKPTVETLGPTVKSEETTTPYPTEEEATECGENCSFEDDKDLQLPSGFNCNFDFLEEPCGWMYDHAKWLRTTWASSSSPNDRTFPDDRNFLRLQSDSQREGQYARLISPPVHLPRSPVCMEFQYQATGGRGVALQVVREASQESKLLWVIREDQGGEWKHGRIILPSYDMEYQIVFEGVIGKGRSGEIAIDDIRISTDVPLENCMEPISAFAGENFKVDIPEIHEREGYEDEIDDEYEVDWSNSSSATSGSGAPSTDKEKSWLYTLDPILITIIAMSSLGVLLGATCAGLLLYCTCSYSGLSSRSCTTLENYNFELYDGLKHKVKMNHQKCCSEA
# How the values were obtained:
# Assay in all cases: glycan array binding signal (z-score within array); higher = stronger binding
# Settings in all cases: glycan notation: IUPAC condensed, linker removed
# [1] = molecular target: Fuc(a1-2)[Gal(a1-3)]Gal(b1-4)GlcNAc(b1-2)Man(a1-3)[Fuc(a1-2)[Gal(a1-3)]Gal(b1-4)GlcNAc(b1-2)Man(a1-6)]Man(b1-4)GlcNAc(b1-4)GlcNAc
# How it was run: (§1)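 From the Consortium for Functional Glycomics database, 3228 arrays were curated, keeping only those whose protein sequence was available. Binding is given as a within-array Z-score averaged across arrays sharing a protein sequence and across linkers. Negative Z-scores can be read as non-binding.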
# [2] = molecular target: Fuc(a1-2)[Gal(a1-3)]Gal(b1-4)[Fuc(a1-3)]GlcNAc
# How it was run: as §1
# [3] = molecular target: Fuc(a1-2)[Gal(a1-4)]Gal(b1-4)GlcNAc
# How it was run: as §1
# [4] = molecular target: Fuc(a1-2)[GalNAc(a1-3)]Gal
# How it was run: as §1
# [5] = molecular target: Fuc(a1-2)[GalNAc(a1-3)]Gal(b1-3)GlcNAc
# How it was run: as §1
# [6] = molecular target: Fuc(a1-2)[GalNAc(a1-3)]Gal(b1-3)GlcNAc(b1-2)Man(a1-3)[Fuc(a1-2)[GalNAc(a1-3)]Gal(b1-3)GlcNAc(b1-2)Man(a1-6)]Man(b1-4)GlcNAc(b1-4)GlcNAc
# How it was run: as §1
# [7] = molecular target: Fuc(a1-2)[GalNAc(a1-3)]Gal(b1-4)Glc
# How it was run: as §1
# [8] = molecular target: Fuc(a1-2)[GalNAc(a1-3)]Gal(b1-4)GlcNAc
# How it was run: as §1
# [9] = molecular target: Fuc(a1-2)[GalNAc(a1-3)]Gal(b1-4)GlcNAc(b1-2)Man(a1-3)[GalNAc(a1-3)[Fuc(a1-2)]Gal(b1-4)GlcNAc(b1-2)Man(a1-6)]Man(b1-4)GlcNAc(b1-4)GlcNAc
# How it was run: as §1
# [10] = molecular target: Fuc(a1-2)[GalNAc(a1-3)]Gal(b1-4)GlcNAc(b1-3)Gal(b1-4)GlcNAc
# How it was run: as §1
# [11] = molecular target: Fuc(a1-2)[GalNAc(a1-3)]Gal(b1-4)GlcNAc(b1-3)Gal(b1-4)GlcNAc(b1-3)Gal(b1-4)GlcNAc
# How it was run: as §1
# [12] = molecular target: Fuc(a1-2)[GalNAc(a1-3)]Gal(b1-4)[Fuc(a1-3)]GlcNAc
# How it was run: as §1
# [13] = molecular target: Fuc(a1-2)[GalNAc(a1-4)]Gal(b1-4)GlcNAc
# How it was run: as §1
# [14] = molecular target: Fuc(a1-2)[GalNAc(b1-3)]Gal
# How it was run: as §1
# Fuc(a1-3)GlcNAc = molecular target: Fuc(a1-3)GlcNAc
# How it was run: as §1
# [15] = molecular target: Fuc(a1-3)[Gal(b1-4)]Glc6S
# How it was run: as §1
# [16] = molecular target: Fuc(a1-3)[Gal(b1-4)]GlcNAc
# How it was run: as §1
# [17] = molecular target: Fuc(a1-3)[Gal(b1-4)]GlcNAc(b1-2)Man(a1-3)[Fuc(a1-3)[Gal(b1-4)]GlcNAc(b1-2)Man(a1-6)]Man(b1-4)GlcNAc(b1-4)GlcNAc
# How it was run: as §1
# [18] = molecular target: Fuc(a1-3)[Gal(b1-4)]GlcNAc(b1-2)Man(a1-6)[Gal(b1-4)GlcNAc(b1-2)Man(a1-3)]Man(b1-4)GlcNAc(b1-4)GlcNAc
# How it was run: as §1
# [19] = molecular target: Fuc(a1-3)[Gal(b1-4)]GlcNAc(b1-3)Gal(b1-3)[Fuc(a1-4)]GlcNAc
# How it was run: as §1
# [20] = molecular target: Fuc(a1-3)[Gal(b1-4)]GlcNAc(b1-4)Gal(b1-4)[Fuc(a1-3)]GlcNAc
# How it was run: as §1
# [21] = molecular target: Fuc(a1-3)[Gal(b1-4)]GlcNAc(b1-4)Gal(b1-4)[Fuc(a1-3)]GlcNAc(b1-4)Gal(b1-4)[Fuc(a1-3)]GlcNAc
# How it was run: as §1
# [22] = molecular target: Fuc(a1-3)[Gal(b1-4)]GlcNAc6S
# How it was run: as §1
# [23] = molecular target: Fuc(a1-3)[Gal3S(b1-4)]Glc6S
# How it was run: as §1
# [24] = molecular target: Fuc(a1-3)[Gal3S(b1-4)]GlcNAc
# How it was run: as §1
# [25] = molecular target: Fuc(a1-3)[Gal3S(b1-4)]GlcNAc6S
# How it was run: as §1
# [26] = molecular target: Fuc(a1-3)[GalNAc(b1-4)]GlcNAc
# How it was run: as §1
# Fuc(a1-4)GlcNAc = molecular target: Fuc(a1-4)GlcNAc
# How it was run: as §1
# Fuc(b1-3)GlcNAc = molecular target: Fuc(b1-3)GlcNAc
# How it was run: as §1
# Gal(a1-2)Gal = molecular target: Gal(a1-2)Gal
# How it was run: as §1
binder,measurement,setting,value
B1,glycan array binding signal (z-score),[1],0.426
same,glycan array binding signal (z-score),[2],0.942
same,glycan array binding signal (z-score),[3],-0.019
same,glycan array binding signal (z-score),[4],-0.268
same,glycan array binding signal (z-score),[5],0.73
same,glycan array binding signal (z-score),[6],-0.324
same,glycan array binding signal (z-score),[7],-0.637
same,glycan array binding signal (z-score),[8],0.014
same,glycan array binding signal (z-score),[9],-0.112
same,glycan array binding signal (z-score),[10],0.079
same,glycan array binding signal (z-score),[11],0.497
same,glycan array binding signal (z-score),[12],0.753
same,glycan array binding signal (z-score),[13],-0.846
same,glycan array binding signal (z-score),[14],-0.222
same,glycan array binding signal (z-score),Fuc(a1-3)GlcNAc,-0.252
same,glycan array binding signal (z-score),[15],0.81
same,glycan array binding signal (z-score),[16],0.087
same,glycan array binding signal (z-score),[17],-0.38
same,glycan array binding signal (z-score),[18],-0.628
same,glycan array binding signal (z-score),[19],0.073
same,glycan array binding signal (z-score),[20],0.328
same,glycan array binding signal (z-score),[21],-0.508
same,glycan array binding signal (z-score),[22],0.78
same,glycan array binding signal (z-score),[23],6.67
same,glycan array binding signal (z-score),[24],0.282
same,glycan array binding signal (z-score),[25],1.64
same,glycan array binding signal (z-score),[26],-0.442
same,glycan array binding signal (z-score),Fuc(a1-4)GlcNAc,0.104
same,glycan array binding signal (z-score),Fuc(b1-3)GlcNAc,-0.508
same,glycan array binding signal (z-score),Gal(a1-2)Gal,0.8
